Test results from the supplement of paper PMC11417369.
± gives the standard deviation of the averaged measurements. Some of the results follow.

test system: PfAP2-I AP2 domain 3 (GST-tagged); test: gcPBM binding intensity (ln(normalized median fluorescence intensity)); higher = stronger DNA binding
Procedure, shortened: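 Using an Agilent 4 × 180k array, primer-extended double-stranded 36-bp intergenic genomic probes and negative controls were exposed for 1 h to GST-fused P. falciparum DNA-binding domains expressed in E. coli. Binding was carried out in 1× PBS with 1% milk, 0.2 mg/ml BSA, 0.5% salmon testes DNA and 0.03% Triton X-100, and protein was detected with Alexa488 anti-GST antibody and a 488 nm scan. Binding intensity is the highest Masliner-normalised natural-log median intensity across replicate spots of either probe orientation.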

Sequence | gcPBM binding intensity (ln)
TCTTTAATGAACAAATGTACAAGAACAATACCCGCA [XGTACX_site2047] | 7.99 ± 0.56
CTTTAACCTTTTTATTGTACTTTTAATATTTTAAAA [XGTACX_site4457] | 8.18 ± 0.33
AATATATGGTATAATTGTACAAAAAAAAAAAAAAAA [XGTACX_site1476] | 8.13 ± 0.6
GTGAAATGGAAAAAAAGTACAGATTACATAAGTATT [XGTACX_site6355] | 7.83 ± 0.62
TATTTTAATTATAAATTTAAAAAAAAAAAGAAAAAA [CACACA_negctrl_site1674] | 7.5 ± 0.45
TGCTTATATATACGTGCACACATATATATAAGATAT [CACACA_site8516] | 10.9 ± 0.11
CTGGAGGATGAAAAAAGTACAAAAGGAGGAAATGTA [XGTACX_site8846] | 8.07 ± 0.47
AGCTCATGCAGGTGTACACAAAAAGAAAAAAAATAA [CACACA_site4828] | 8.76 ± 0.18
AAAACAAATATATTAACACACAAACATATAAACAAA [CACACA_site6052] | 7.97 ± 0.47
ATAAATAATGTTGACACACACAATAATCTTATTATG [CACACA_site3593] | 7.73 ± 0.52
CCCCATATAATGAACACACACACTCCTCATAATTAA [CACACA_site628] | 8.47 ± 0.71
ATGTCCTCAATGTTTACACACTCTTTTATATAAGTT [CACACA_site1460] | 8.5 ± 0.41
ATTATTATTAATAGTACACACTATGGCATTTCAATA [CACACA_site5388] | 8 ± 0.29
TATATAACTGTCTTCACACACACATATAAATAAATA [CACACA_site7317] | 7.96 ± 0.42
TATTTCACAACTTGTCGTACATTAATTGTATTATTT [XGTACX_site997] | 8.2 ± 0.44
ATCTTTCATCTACCAAGTACAAATTACTTTTTTTTT [XGTACX_site7001] | 8.04 ± 0.64
TTAGGTGTATATAATTGTACATTTTGGAAATTATAC [XGTACX_site5492] | 7.7 ± 0.54
TCTTATTTAAAAATAGCACACATTATGTATATATAT [CACACA_site2822] | 8.39 ± 0.67
AGCTCGGAAAAATTAGCATGCAAAAAAAAAAAAAAA [TGCATGCA_site658] | 8.13 ± 0.73

Sequence | gcPBM binding intensity (ln)
TGAAACCATAAAGAATGTACACAGCGGTATAAGTTA [XGTACX_site674] | 7.91 ± 0.8
AATAAAATAAGAAGCACACAAATATTATATATAAAA [CACACA_site3980] | 7.87 ± 0.62
TTTTAAATAATACATACATGCATATATACACATATA [TGCATGCA_site8] | 8.16 ± 0.83
TTAATATATTTAAATATATATAAAATATATAATATG [CACACA_negctrl_site880] | 7.34 ± 0.37
TTCTTTTCTTCTACATGTACAAATATTATATATATA [XGTACX_site2996] | 8.46 ± 0.46
TTTTGGAATTTTAGCTGTACTTTTCCTATTTTGTAT [XGTACX_site7679] | 7.96 ± 0.36
TTGTGTTTTACATATACATGCAAATTTTTTTTTTTA [TGCATGCA_site303] | 7.56 ± 0.57
TAAATCATTTCATGGCATTTACACAAAATTTTTTAA [CACACA_negctrl_site1260] | 7.6 ± 0.68
TATATATAATATTATACACACATATATGCATAATAT [CACACA_site54] | 8.57 ± 0.73
TATTTATTTATATAAACACACATAAATATAAATATA [CACACA_site6653] | 7.62 ± 0.35
TATAGCATAAATATGTGTACATATTTATATGATATT [XGTACX_site6333] | 7.63 ± 0.3
ATATATATTTAAAAAAGTACAGAAGAAAATAACCCA [XGTACX_site642] | 8.18 ± 0.31
TATTACACATATTATACACACATATATTATATATAT [CACACA_site4951] | 8.34 ± 0.28
TAACATATTTTTAATACACACTTAAAAAAGTACTTA [CACACA_site4875] | 8 ± 0.34
TTAAATTGAATTAGTTAACACACAACTTTTATTTCA [CACACA_site8921] | 7.5 ± 0.54
TCTTCATACGACTAAAAAACATTAGACTGATAAAAA [CACACA_negctrl_site628] | 7.71 ± 0.45
AAATACAAAATTGTTACACACATATTAAGTATGACA [CACACA_site4421] | 7.38 ± 0.57
AGTTTAGAATTTAATACACACAAAAAAAAAAAATTA [CACACA_site7698] | 7.63 ± 0.36
AACGTTCAATTTAAATGTACAAATGTATTTAAATAT [XGTACX_site315] | 7.68 ± 0.54

Sequence | gcPBM binding intensity (ln)
TTTCTTTTTTCATTTACACACAATAATATAAGAATA [CACACA_site3164] | 7.94 ± 0.48
TACACAAATATATATATATATATATATATATATATA [XGTACX_negctrl_site305] | 9.55 ± 0.5
TATTTATGTTCATATAAACACACGTAAAATTCAAGG [CACACA_site1538] | 7.92 ± 0.59
CATATTCATAAAAGTTGTACATGCAATTTTTTTTTT [XGTACX_site2261] | 7.71 ± 0.54
TCAATAAAAAAAAACGCACACACAAATATATTCCAT [CACACA_site1223] | 8.18 ± 0.52
GTCCCTATAAGGGGAACACACATAAATGGATATATA [CACACA_site6612] | 7.59 ± 0.52
TAAATGGGTGTTAATGCACACGATATGTCTATATAT [CACACA_site5321] | 10.8 ± 0.67
TATTTATTTTTCTGTTGTACTTTTCAACATGTTACA [XGTACX_site7457] | 7.85 ± 0.61
TCTACATATTAATTATGTACGAATTATTATTAGTAA [XGTACX_site6924] | 7.39 ± 0.23
ATACTATATATATAAGTGCATGTTCATTATACCTAA | 8.39 ± 0.75
ATAACTAAATGATATTGTACAAAATAATTATATATT [XGTACX_site1331] | 7.7 ± 0.45
ATATATATTATGTGTGTGCACTTTTGTTATTATTAT | 9.83 ± 0.014
CATTATATGATTTATGTGCACATTCATTTATTTTAA | 9.48 ± 0.23
TATTAATAAAACCGTTGTACTACATACATAAATATT [XGTACX_site5578] | 7.9 ± 0.44
AAAAATCAATTAGAAGAACACACGTAAATTTTTTTT [CACACA_site2396] | 7.58 ± 0.82
TTATAACACATTACATGTACAAATATAAATATATTC [XGTACX_site6503] | 7.68 ± 0.45
AAAAATATATATAACACACACATAATATATATATAT [CACACA_site2537] | 9.2 ± 0.3
AAAAAAAAAAAAAAATGTACAAAAATTACTATAAAA [XGTACX_site7683] | 8.05 ± 0.42
TTTTTTTTTGTTTACACACACAAAATATTATATGTA [CACACA_site2470] | 7.79 ± 0.74
